# Test results taken from PubChem BioAssay AID1745853 (National Center for Advancing Translational Sciences (NCATS), 2022).
# This is one part of the list. Further columns of the screen follow, without active or inactive calls.
# What was measured:
# Assay in all cases: Primary Screen for Target Class Profiling of Small Molecule Inhibitors of Methyltransferases
# [1] = target: Glycine N-methyltransferase (Homo sapiens) (UniProt Q14749); conditions: purified enzyme, MTase-Glo SAH luminescence; measured here: GNMT inhibition; at 40 µM; stronger effect = lower value
# How it was run: (§1)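 Each enzyme was assayed with SAM and its substrate. SAH formation detected by MTase-Glo luminescence; single-point 40 uM screen[…].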
# [2] = target: Guanidinoacetate N-methyltransferase (Homo sapiens) (UniProt Q14353); conditions: purified enzyme, MTase-Glo SAH luminescence; measured here: GAMT inhibition; at 40 µM; stronger effect = lower value
# How it was run: as §1
# [3] = target: Histamine N-methyltransferase (Homo sapiens) (UniProt P50135); conditions: purified enzyme, MTase-Glo SAH luminescence; measured here: HNMT inhibition; at 40 µM; stronger effect = lower value
# How it was run: as §1
# [4] = target: Nicotinamide N-methyltransferase (Homo sapiens) (UniProt P40261); conditions: purified enzyme, MTase-Glo SAH luminescence; measured here: NNMT inhibition; at 40 µM; stronger effect = lower value
# How it was run: as §1
# [5] = target: Phenylethanolamine N-methyltransferase (Homo sapiens) (UniProt P11086); conditions: purified enzyme, MTase-Glo SAH luminescence; measured here: PNMT inhibition; at 40 µM; stronger effect = lower value
# How it was run: as §1
# On the % scale 0 is the no-effect control and ±100 the full control effect.
SMILES,"activity change, negative = inhibition [1] [%]","activity change, negative = inhibition [2] [%]","activity change, negative = inhibition [3] [%]","activity change, negative = inhibition [4] [%]","activity change, negative = inhibition [5] [%]"
Cc1cnc(-c2ccncc2)n1C1CCN(S(=O)(=O)c2ccc3c(c2)OCCO3)CC1,-0.016,0,9.52,-6.37,3.16
C[C@]1(OC(=O)/C=C/c2ccccc2)C[C@@H](O)[C@]2(O)C=CO[C@@H](O[C@@H]3O[C@H](CO)[C@@H](O)[C@H](O)[C@H]3O)[C@@H]21,3.27,3.35,7.71,-8,-0.885
CCc1cc2c(cc3n2CC(C)(C(=O)NC2CCCCC2)N(Cc2cccc(F)c2)C3=O)s1 (stereo not drawn),1.55,0,1.81,9.64,0.164
COCc1cc(NCCCNc2cccnc2)ncn1,-58.7,-42.4,-11.1,-9.5,-27.5
O=[S+]([O-])(c1ccncc1)c1nnn2c1nc(NCc1ccncc1)c1ccccc12,-4.26,-1.76,-1.58,-4.39,2.43
CC(=O)OC1CC2(C)C(CCC(C)C23Cc2c(O)cc4c(c2O3)CNC4=O)C(C)(C)C1O (stereo not drawn),4.91,6.06,9.78,-9.47,-1.76
CCN1CCC[C@@H]1CNC(=O)c1ccc2c(c1)NC(=O)/C(=C/c1ccccc1F)S2,-35.6,-14.9,-57.5,-35.4,-6.6
Cc1ccccc1-c1cc(N2CCN(C)CC2)ncc1N(C)C(=O)C(C)(C)c1cc(C(F)(F)F)cc(C(F)(F)F)c1,1.18,9.8,9.54,-13.8,4.95
CCOc1ccc(C(=O)Cn2nc3n(C)c(=O)c4ccc(C(=O)NC(C)CC)cc4n3c2=O)cc1 (stereo not drawn),8.19,2.01,13.2,5.48,9.82
CCCn1c(=O)c2ccc(C(=O)NC(C)C)cc2n2c(SCC(=O)NC3CCCC3)nnc12,1.01,-3.49,4.59,-6.56,-2.24
CC(=O)N1CC2(CCCCN2CC2CC2)Cc2ccccc21 (stereo not drawn),-2.29,2.6,-5.2,-5.22,0.868
COc1ccc(N2CCN(C(=O)CCc3nnc4n(CCCOC(C)C)c(=O)c5ccccc5n34)CC2)cc1,-0.996,4.24,1.72,-0.876,0.311
CCCN1C(=O)c2ccc(-c3ccccc3)n2CC1(C)C(=O)NC1CCCCCC1 (stereo not drawn),-3.38,0,-2.89,-2.43,-0.897
O=C(NCc1cccnc1)c1nc(-c2ccc(Cl)cc2)c2ccccn12,-7.13,-6.43,-3.4,-20.3,-8.45
Cc1nnc2n1CCC(N(C)C(=O)CCc1ccccc1)CC2 (stereo not drawn),0.717,-0.087,0.656,-2.07,-7.73
CCc1cccc(NC(=O)Cn2nc3n(C(C)C)c(=O)c4ccc(C(=O)NC(C)CC)cc4n3c2=O)c1 (stereo not drawn),1.49,0,-3.12,3.37,-0.937
O=C(OC1CN2CCC1CC2)N1CCc2ccccc2C1c1ccccc1 (stereo not drawn),3.89,12.3,5.45,-21,0.609
CCCn1c(=O)c2ccc(C(=O)NC3CCCCC3)cc2n2c(=O)n(CC(=O)NC(C)CC)nc12 (stereo not drawn),7.5,2.16,2.34,7.33,7.2
O=C(Cn1ccc2cc(S(=O)(=O)N3CCCC3)ccc21)NCc1cccs1,-3.53,-2.23,0.939,-6,-2.48
Clc1ccc(Cn2c(Cc3ccccc3)nc3ccccc32)cc1,-2.9,-12.4,-3,-66.8,-16.8
Cc1ccc(NC(=O)Cn2nc3n(CC(C)C)c(=O)c4ccccc4n3c2=O)c(Cl)c1,0.568,0.703,1.26,-4.98,-4.91
c1ccc(-c2cc(CC3(NCC4CC4)COC3)no2)nc1,-3.66,-3.58,-0.027,-10.7,5.4
Cc1cc(Nc2cccc(C(F)(F)F)c2)nc2ccc(NC(=O)c3ccc(=O)[nH]c3)cc12,,13.5,,7.16,10.6
CCC1CCCCN1CCCNC(=O)c1cc2n(n1)CC(C)(C(=O)NC1CCCC1)N(C)C2=O (stereo not drawn),-4.41,0,-4.63,-6.72,-2.51
COc1ccc(CNC(=O)C(C)n2ccc3cc(S(=O)(=O)N4CCCC4)ccc32)cc1OC (stereo not drawn),-0.488,2.84,1.89,-1.23,-0.94
O=C(CCc1nnc2n(Cc3ccccc3Cl)c(=O)c3ccccc3n12)N1CCN(c2ccccc2F)CC1,-6.27,4.65,4.74,2.8,-0.406
Cc1nc(CC(=O)NC(C)c2cnn(-c3ccccc3)c2C)cs1 (stereo not drawn),0.497,0.958,0.996,2.74,3
COc1ccc(/C=C/c2nc(NCCCN(C)C)c3ccccc3n2)cc1,-9.51,2.02,-58.5,-15.8,3.34
COc1cccc(CN2C(=O)c3cc4sccc4n3CC2(C)C(=O)NC2CCCC2)c1 (stereo not drawn),-5.85,4,-0.55,-8.83,-2.19
CCOc1ccccc1NC(=O)C1CCN(c2cnc3nccnc3c2)CC1,-3.13,-4.48,-2.89,-2.99,-14.9
